Reference: paper PMC4336329 (PLoS ONE, 2015)
Out of some 310,000 compounds screened, about 2,200 (0.71%) showed an effect of 50% or more. The effect is printed as a negative number. The list shows a part of the results.

Target: human ether-à-go-go-related gene (hERG) potassium channel (human, UniProt Q12809)
Assay: primary screen, population patch clamp on CHO cells stably expressing hERG

human ether-à-go-go-related gene (hERG) potassium channel, sequence (Q12809 whole entry, looked up): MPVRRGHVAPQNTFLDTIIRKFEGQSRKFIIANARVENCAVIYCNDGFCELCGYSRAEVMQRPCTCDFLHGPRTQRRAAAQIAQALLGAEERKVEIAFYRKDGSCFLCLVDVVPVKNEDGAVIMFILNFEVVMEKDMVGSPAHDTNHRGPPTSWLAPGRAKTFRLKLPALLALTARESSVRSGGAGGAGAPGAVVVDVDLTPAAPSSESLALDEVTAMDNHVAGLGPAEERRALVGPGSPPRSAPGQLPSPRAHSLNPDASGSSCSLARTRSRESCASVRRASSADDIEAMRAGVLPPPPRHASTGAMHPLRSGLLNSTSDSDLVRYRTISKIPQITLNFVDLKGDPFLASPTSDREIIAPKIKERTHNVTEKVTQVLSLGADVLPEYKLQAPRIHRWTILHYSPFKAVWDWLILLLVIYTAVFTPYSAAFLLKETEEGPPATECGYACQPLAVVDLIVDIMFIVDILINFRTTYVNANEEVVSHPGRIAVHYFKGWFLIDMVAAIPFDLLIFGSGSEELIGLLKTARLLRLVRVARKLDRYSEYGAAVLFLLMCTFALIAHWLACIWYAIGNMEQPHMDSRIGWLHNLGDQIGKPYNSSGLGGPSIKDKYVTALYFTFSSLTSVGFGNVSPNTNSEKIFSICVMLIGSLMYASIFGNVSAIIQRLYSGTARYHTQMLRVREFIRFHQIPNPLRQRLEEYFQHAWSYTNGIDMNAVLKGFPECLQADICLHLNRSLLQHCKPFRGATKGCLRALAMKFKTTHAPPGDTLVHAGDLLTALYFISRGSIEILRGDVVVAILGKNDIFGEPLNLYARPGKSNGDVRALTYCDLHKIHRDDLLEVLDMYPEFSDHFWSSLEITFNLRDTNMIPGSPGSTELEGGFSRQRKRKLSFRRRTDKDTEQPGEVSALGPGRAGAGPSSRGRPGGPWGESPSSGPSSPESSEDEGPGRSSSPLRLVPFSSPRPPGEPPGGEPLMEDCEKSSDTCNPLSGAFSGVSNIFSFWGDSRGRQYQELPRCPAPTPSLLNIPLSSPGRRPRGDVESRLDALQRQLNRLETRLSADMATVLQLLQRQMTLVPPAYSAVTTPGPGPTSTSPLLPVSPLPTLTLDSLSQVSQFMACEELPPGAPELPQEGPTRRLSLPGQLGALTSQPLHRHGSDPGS

Row | SMILES | hERG current change (%, negative = inhibition) at 1uM [%]
1 | Cn1c(=O)[nH]c(=O)c2c1nc(CN1CCN(c3ccc(F)cc3)CC1)n2CCCc1ccccc1 | -25.2
2 | CCOc1ccc(/C(O)=C2\C(=O)C(=O)N(CCN(C)C)C2c2cccc(OC)c2OC)cc1Cl (stereo not drawn) | 8.32
3 | COC(=O)c1sc(NC(=O)COc2cccc(C)c2)nc1C | 4.63
4 | COc1ccccc1CN(C)C(=O)CN1C(=O)c2ccccc2C1=O | 15.6
5 | O=C(N/N=C/c1c[nH]c2ccccc12)c1cccc(Cl)c1 | 13.3
6 | OCC(Cc1ccc2c(c1)OCO2)C(CO)Cc1ccc2c(c1)OCO2 (stereo not drawn) | 12.6
7 | C[NH+](C)CC(C)(C)CNS(=O)(=O)c1ccc(Cl)c(Cl)c1.[Cl-] | 10.5
8 | COC(=O)Cn1cc(/C=C(/C#N)C(=O)N2CCOCC2)c2ccccc21 | 13.4
9 | O=C(Cc1cn2ccsc2n1)Nc1ccccn1 | 8.18
10 | O=C(NC(=S)NNC(=O)c1cccs1)c1ccccc1 | -9.27
11 | O=C(Nc1ccccc1)Oc1ccc[nH]c1=O | 12.4
12 | CC1(C)CC(=O)C(C=NCCN2CCN(C(=O)Cc3ccccc3)CC2)=C(O)C1 | -7.37
13 | COc1ccc(C=O)cc1COc1ccccc1F | 5.63
14 | O=C(Nc1cccc2ccccc12)c1ccc(F)cc1 | 8.22
15 | O=C1CN=C(c2ccccc2Cl)c2cc(Br)ccc2N1 | 3.36
16 | CN(Cc1ccco1)c1ncnc2ccc(-c3ccccc3Cl)cc12 | 8.44
17 | Cc1occc1C(=O)NCCCc1ccccc1 | 11.2
18 | O=C(Cc1c(Cl)cccc1Cl)N1CCN(Cc2ccccc2)CC1 | 15.5
19 | CC(NC(=O)c1ccc2c(c1)OCO2)C(c1cccs1)N1CCN(c2ccccc2)CC1 (stereo not drawn) | 12.7

Row | SMILES | hERG current change (%, negative = inhibition) at 1uM [%]
20 | Cc1cccc(C(=O)NC2CC3CCCC(C2)N3C(=O)Nc2ccccc2)c1 (stereo not drawn) | 15.6
21 | CC(C)CN1CCCC(N2CCN(c3cccc(Cl)c3)CC2)C1 (stereo not drawn) | 5.47
22 | O=C(CSc1ncccn1)Nc1ccc2[nH]c(=O)[nH]c2c1 | 7.29
23 | N#CCCN(Cc1cccnc1)S(=O)(=O)c1ccc(S(=O)(=O)N2CCCCCC2)cc1 | 1.54
24 | C=Cn1ccnc1P(=S)(c1ccc(Cl)cc1)c1nccn1C=C | 7.58
25 | COc1ccc(-c2csc(N3C(=O)CNC3=S)n2)cc1 | 15.8
26 | CC(C)(C)S(=O)(=O)/C(C#N)=C/c1sccc1C1OCCO1 | 14.9
27 | Cc1ccc(NC(=O)C2CCCN2C(=O)OCc2ccccc2)c(O)c1 (stereo not drawn) | 21.6
28 | CN(c1ccccc1)S(=O)(=O)c1nnc(NC(=O)COc2ccccc2F)s1 | 5.81
29 | CCN(CC)c1ccc(C(=O)OCC(=O)NC2CCCCC2C)cc1 (stereo not drawn) | 6.91
30 | CC(C)C(CCNC(=O)CC(Cc1ccccc1)c1ccco1)c1ccco1 (stereo not drawn) | -2.11
31 | CCCCCN1CC(O)=C(c2nc(-c3ccc(Cl)cc3)cs2)C1=N | 11.4
32 | COc1ccc(-c2cc(C#N)nc(N3CCNCC3)n2)cc1 | 0.443
33 | COc1ccc(CCNC(=O)C2CCN(C(=O)c3ccc([N+](=O)[O-])cc3)CC2)cc1 | -19.2
34 | COc1cc(C(=O)Nc2ccccc2N2CCN(S(C)(=O)=O)CC2)cc(OC)c1OC | -7.97
35 | Cc1ccc2cc(CN(CC3CCCO3)S(=O)(=O)c3ccccc3)c3nnnn3c2c1 (stereo not drawn) | 0.733
36 | CS(=O)(=O)Nc1ccccc1C(=O)NCCSCc1ccccc1 | 9.54
37 | CCc1c(O)nc2sc3ccccc3n2c1=O | 4.81
38 | CCOCCCN(C(=O)c1snc(C(N)=O)c1N)C(C(=O)NCCC(C)C)c1ccc(F)cc1 (stereo not drawn) | 4.24

Row | SMILES | hERG current change (%, negative = inhibition) at 1uM [%]
39 | Cc1c(C(=O)OCC(=O)c2ccc3c(c2)OCCO3)oc2ccccc12 | 5.03
40 | CC(C)Cc1nnc(NC(=O)CCC(=O)Nc2ccccc2)s1 | 8.61
41 | Cl.c1ccc2c(c1)CNC1(CCCCC1)C2 | 5.12
42 | CC(=O)Nc1cccc(C(=O)OCC(=O)NC(=O)c2ccccc2)c1 | 9.57
43 | COc1ccccc1CNC(=O)COC(=O)C1CC1 | 14.1
44 | CCCc1oc(C(=O)O)cc1CN1CCOCC1.Cl | 13
45 | O=C(N/N=C/CCc1ccccc1)c1ccc(CN2c3cccc4cccc(c34)S2(=O)=O)cc1 | 6.94
46 | N#CC(C#N)=Cc1cccn1-c1ccc(C(=O)O)cc1 | 8.4
47 | CCOC(=O)N1CCC(NC(=O)c2cc(C(=O)Nc3ccc(S(=O)(=O)N4CCCCC4)cc3)ccc2CO)CC1 | 3.28
48 | CCc1cc(=O)oc2cc(C)cc(OC(C)C(=O)NCc3ccccn3)c12 (stereo not drawn) | 11.7
49 | C/C(=N/NC(=O)c1nnn(-c2nonc2N)c1COc1ccccc1)c1ccccc1Cl | 14.1
50 | Cl.Clc1ccc(OCc2nnc(SCCN3CCCCC3)n2Cc2ccco2)cc1 | -38.6
51 | COC(=O)c1ccc(Nc2nc(C)cc(=O)[nH]2)cc1 | 1.84
52 | COc1cc(CNn2cnnc2)ccc1OCC(=O)NC(C)(C)C | 13.7
53 | O=C1NC(=O)N(Cc2ccccc2F)C1=O | 15.4
54 | Cc1[nH]c2ccccc2c1SCC(=O)Nc1nccs1 | 7.38
55 | CC1CN(C(=O)CSc2cn(CC(=O)N3CCOCC3)c3ccccc23)CC(C)O1 (stereo not drawn) | 7.96
56 | CCC1CCCCN1CCCNC(=O)c1cn(C)c2ccc(S(=O)(=O)N3CCOCC3)cc2c1=O (stereo not drawn) | 13.5
57 | Cc1c(NC(=O)C2Cc3ccccc3CN2C(=O)c2ccco2)c(=O)n(-c2ccccc2)n1C (stereo not drawn) | -4.41
